Reference: PubChem BioAssay AID1865 (National Center for Advancing Translational Sciences (NCATS), 2009)
Hit rate of the full screen: of about 280,000 compounds, about 540 (0.19%) were called active. Inconclusive means that the source gave no clear call. Such entries were picked first, then a sample of the others. Calls follow the shape of the dose curve; as a rule, active = well fitted activation curve with a large enough effect; inconclusive = small, poorly fitted or top-dose-only effect; inactive = flat fitted curve, though single readings scatter. Where the call is inconclusive, the potency comes from a doubtful curve fit.

Assay: Quantitative High-Throughput Screen for Regulators of Epigenetic Control; also: nearly all actives have a fitted effect of over 60% in size
Settings: murine LDR cells, GFP reporter derepression, 30 h; series mostly up to 53.9 µM
How it was run: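 GFP-positive cell count by laser-scanning cytometry (objects 20–120 um) after 30 h, 37 C compound exposure of murine LDR cells; reporter is CMV-GFP integrated at a silenced locus, inducible by HDAC or DNMT inhibitors.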
Potency is read from the fitted curve at half-maximal effect; tags tell the direction and shape of the fitted curve.

| Compound | Potency |
| --- | --- |
| Cc1[nH]c(=O)c(C#N)c2c1COC(C)(C)C2 | inactive |
| C=CCn1nc([N+](=O)[O-])nc1Sc1cccc2cccnc12 | inconclusive: 3.16 µM [activator, single point] |
| O=C(/C=C/c1ccccc1F)c1cccc([N+](=O)[O-])c1 | inconclusive: 35.5 µM [activator, single point] |
| CN1C(=O)C(Cl)(Cl)C(=O)c2ccccc21 | inconclusive: 22.4 µM [activator, single point] |
| CC(C)C[C@H](N)CSSC[C@@H](N)CC(C)C | inconclusive: 25.1 µM [activator, single point] |
| CC(=O)OCCCNc1cc(Sc2ccc(C)cc2)c2nonc2c1[N+](=O)[O-] | inconclusive: 3.98 µM [activator, single point] |
| CCC(=O)N1CCc2cc(CNS(=O)(=O)c3cc(OC)ccc3OC)ccc21 | inconclusive: 0.282 µM [activator, full curve] |
| CCN(CC)CCN1C(=O)c2cccc3cc(N)cc(c23)C1=O | inconclusive: 28.2 µM [activator, single point] |
| Oc1ccc(Cl)cc1C1=Nc2ccccc2N=C(c2ccccc2)C1 | inconclusive: 22.4 µM [activator, single point] |
| Cc1cc(/C=C2\NC(=S)N(C)C2=O)ccc1N1CCCC1 | inconclusive: 11.2 µM [activator, partial curve] |
| CCN(CC)c1ccc(NC2CC(=O)N(CCc3ccc(OC)cc3)C2=O)cc1 (stereo not given) | active: 3.55 µM |
| CCOc1ccc2[nH]c(=O)c(CN(Cc3ccco3)C(=O)c3ccc(Br)cc3)cc2c1 | inconclusive: 35.5 µM [activator, single point] |
| CC(=O)c1cccc(NC(=O)CSc2nnc3ccc(-c4ccc(Br)cc4)nn23)c1 | inactive |
| Cc1ccc(-n2c(=O)c3sc4ccccc4c3n(CC(=O)NC3CCCC3)c2=O)cc1C | inconclusive: 35.5 µM [activator, single point] |
| Cc1ccc(CN2CCC(CNC(=O)c3cnn(-c4ccccc4Cl)c3C3CCN(C(=O)OC(C)(C)C)CC3)CC2)cc1 | inconclusive: 17.8 µM [activator, single point] |
| C/C(=N\Nc1ccccc1)c1cc2ccccc2oc1=O | inconclusive: 25.1 µM [activator, single point] |
| CC(Sc1nc(N)cc(=O)[nH]1)C(=O)Nc1sc2c(c1C#N)CCCC2 (stereo not given) | inactive |
| CCC(C(=O)Nc1cccc(Cl)c1C)n1nc(C)c2sc3ccccc3c2c1=O (stereo not given) | inconclusive: 35.5 µM [activator, single point] |
| Cc1cccc2c1c1ccc3c(c1n2C)C(=O)C=CC3=O | inconclusive: 5.62 µM [activator, single point] |
| O=C(Nc1ccc(N2CCCC2)cc1)c1cccc(-c2cc3ccccc3oc2=O)c1 | inactive |
| Fc1ccc(CNc2nc3ccccc3n3nnnc23)cc1 | inconclusive: 35.5 µM [activator, single point] |
| CCCOc1ccc(C2=NNC(c3cccs3)=Nc3ccc(OC)cc32)cc1 | inactive |
| Nc1ccc(C23CC4CC(CC(O)(C4)C2)C3)cc1 | inconclusive: 12.6 µM [activator, single point] |

| Compound | Potency |
| --- | --- |
| Cc1cccc(NC(=S)NCC2CCCO2)c1 (stereo not given) | inactive |
| COc1ccc(C)cc1NC(=O)C(Sc1nnc(-c2ccncc2)n1-c1ccc(Cl)cc1)c1ccccc1 (stereo not given) | inactive |
| CC(=O)Oc1ccc(N2C(=O)C3C(C2=O)C(C(=O)c2ccc(Cl)cc2)N2CCCC32)cc1 (stereo not given) | inconclusive: 3.55 µM [activator, single point] |
| Cc1nc2c(N=Nc3ccccc3F)c(N)nn2c(N)c1C#N | inconclusive: 14.1 µM [activator, single point] |
| O=c1c(/C=C(\O)c2ccc(F)cc2)nc2ccccc2n1-c1ccccc1 | active: 12.6 µM |
| Cc1ccccc1Oc1nc2ccccn2c(=O)c1/C=C(\C#N)c1nc2ccccc2[nH]1 | active: 11.2 µM |
| Cc1ccc(CN2C(=O)C[C@@H](NS(=O)(=O)c3ccc4ccccc4c3)C/C=C\C2c2ccc(C)cc2)cc1 (stereo not given in full) | inactive |
| Cc1cccc(N(C)c2nc3ccc(C(=O)c4ccccc4)cc3n3c(C)nnc23)c1 | inconclusive: 35.5 µM [activator, single point] |
| Cc1ccc(OCC(=O)c2ccc(Cl)s2)c([N+](=O)[O-])n1 | inconclusive: 35.5 µM [activator, single point] |
| CCN(CC)c1nc2ccccc2nc1C(=O)Nc1ccc(C(C)=O)cc1 | inactive |
| COc1cc2c(cc1NC(=S)NC(=O)/C=C/c1ccco1)oc1ccccc12 | inconclusive: 22.4 µM [activator, single point] |
| COc1cc(C(=O)Nc2ccccc2-c2nc(-c3ccccc3)no2)cc(OC)c1OC | active: 0.631 µM |
| CCOC(=O)c1c(-c2ccc(OC)cc2)csc1/N=C/C1=C(O)CCCC1=O | inconclusive: 31.6 µM [activator, single point] |
| Clc1cccc(-c2nnc3sc(-c4ccc5c(c4)OCO5)nn23)c1 | inactive |
| COC(=O)c1cc(NC(=O)c2ccccc2)c(=O)oc1/C=C/Nc1ccc(Oc2ccccc2)cc1 | inconclusive: 31.6 µM [activator, single point] |
| COc1ccc(C2CC(=O)c3cc(-c4nc(-c5cccc([N+](=O)[O-])c5)cs4)c(=O)n(-c4ccccc4N)c3C2)cc1 (stereo not given) | inconclusive: 35.5 µM [activator, single point] |
| CC(=O)c1ccc(NC(=O)C2CCN(S(=O)(=O)c3ccc4[nH]c5c(c4c3)CCCCC5)CC2)cc1 | inconclusive: 35.5 µM [activator, single point] |
| COc1ccc2oc(C(=O)c3ccccc3)c(N)c2c1 | inactive |
| COC(=O)c1ccccc1NC(=O)Cn1c(=O)n(CCC(=O)NCc2ccc3c(c2)OCO3)c(=O)c2ccccc21 | inactive |
| COc1ccc(NC(=S)N/N=C2/CCCc3c(C)cc(C)cc32)cc1 | inactive |
| O=S1(=O)c2ccccc2N(Cc2ccccc2F)c2ccccc21 | inactive |
| CCN1CCc2c(sc(NC(=O)c3ccc(S(=O)(=O)N4CCCC(C)C4)cc3)c2C(=O)OC)C1 (stereo not given) | inconclusive: 22.4 µM [activator, single point] |
